Assay results as given in the supplement of paper PMC8728848.
The other results are listed elsewhere or left out.

Key:
Test in all cases: glycan array binding signal (z-score within array); higher = stronger binding
Settings in all cases: glycan notation: IUPAC condensed, linker removed
Fuc(a1-2)Gal = target: Fuc(a1-2)Gal
Outline: (§1)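 From the Consortium for Functional Glycomics database, 3228 arrays were curated, keeping only those whose protein sequence was available. Binding is given as a within-array Z-score averaged across arrays sharing a protein sequence and across linkers. Negative Z-scores can be read as non-binding.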

Fuc(a1-2)Gal(b1-3)GalNAc = target: Fuc(a1-2)Gal(b1-3)GalNAc
Outline: as §1

[1] = target: Fuc(a1-2)Gal(b1-3)GalNAc(a1-3)[Fuc(a1-2)]Gal(b1-4)Glc
Outline: as §1

[2] = target: Fuc(a1-2)Gal(b1-3)GalNAc(a1-3)[Fuc(a1-2)]Gal(b1-4)GlcNAc
Outline: as §1

[3] = target: Fuc(a1-2)Gal(b1-3)GalNAc(b1-3)Gal
Outline: as §1

[4] = target: Fuc(a1-2)Gal(b1-3)GalNAc(b1-3)Gal(a1-4)Gal(b1-4)Glc
Outline: as §1

[5] = target: Fuc(a1-2)Gal(b1-3)GalNAc(b1-4)[Neu5Ac(a2-3)]Gal(b1-4)Glc
Outline: as §1

Fuc(a1-2)Gal(b1-3)GlcNAc = target: Fuc(a1-2)Gal(b1-3)GlcNAc
Outline: as §1

[6] = target: Fuc(a1-2)Gal(b1-3)GlcNAc(b1-2)Man(a1-3)[Fuc(a1-2)Gal(b1-3)GlcNAc(b1-2)Man(a1-6)]Man(b1-4)GlcNAc(b1-4)GlcNAc
Outline: as §1

[7] = target: Fuc(a1-2)Gal(b1-3)GlcNAc(b1-2)Man(a1-3)[Fuc(a1-2)Gal(b1-3)GlcNAc(b1-2)Man(a1-6)]Man(b1-4)GlcNAc(b1-4)[Fuc(a1-6)]GlcNAc
Outline: as §1

[8] = target: Fuc(a1-2)Gal(b1-3)GlcNAc(b1-3)Gal(b1-4)Glc
Outline: as §1

[9] = target: Fuc(a1-2)Gal(b1-3)GlcNAc(b1-3)GalNAc
Outline: as §1

[10] = target: Fuc(a1-2)Gal(b1-3)GlcNAc(b1-3)[Fuc(a1-2)Gal(b1-3)GlcNAc(b1-6)]GalNAc
Outline: as §1

[11] = target: Fuc(a1-2)Gal(b1-3)GlcNAc(b1-3)[Gal(b1-4)GlcNAc(b1-6)]Gal(b1-4)Glc
Outline: as §1

[12] = target: Fuc(a1-2)Gal(b1-3)GlcNAc(b1-3)[Neu5Ac(a2-6)Gal(b1-4)GlcNAc(b1-6)]Gal(b1-4)Glc
Outline: as §1

[13] = target: Fuc(a1-2)Gal(b1-3)GlcNAc6S
Outline: as §1

[14] = target: Fuc(a1-2)Gal(b1-3)[Fuc(a1-4)]GlcNAc
Outline: as §1

[15] = target: Fuc(a1-2)Gal(b1-3)[Fuc(a1-4)]GlcNAc(b1-2)Man(a1-3)[Fuc(a1-2)Gal(b1-3)[Fuc(a1-4)]GlcNAc(b1-2)Man(a1-3)]Man(b1-4)GlcNAc(b1-4)GlcNAc
Outline: as §1

[16] = target: Fuc(a1-2)Gal(b1-3)[Fuc(a1-4)]GlcNAc(b1-2)Man(a1-3)[Fuc(a1-2)Gal(b1-3)[Fuc(a1-4)]GlcNAc(b1-2)Man(a1-6)]Man(b1-4)GlcNAc(b1-4)[Fuc(a1-6)]GlcNAc(b1-4)[Fuc(a1-6)]GlcNAc
Outline: as §1

[17] = target: Fuc(a1-2)Gal(b1-3)[Fuc(a1-4)]GlcNAc(b1-3)[Fuc(a1-3)[Gal(b1-4)]GlcNAc(b1-6)]Gal(b1-4)Glc
Outline: as §1

[18] = target: Fuc(a1-2)Gal(b1-3)[Fuc(a1-4)]GlcNAc(b1-3)[Gal(b1-4)GlcNAc(b1-6)]Gal(b1-4)Glc
Outline: as §1

[19] = target: Fuc(a1-2)Gal(b1-4)Fuc(a1-3)]GlcNAc(b1-2)Man(a1-3)[Fuc(a1-2)Gal(b1-4)[Fuc(a1-3)]GlcNAc(b1-2)Man(a1-6)]Man(b1-4)GlcNAc(b1-4)GlcNAc
Outline: as §1

Fuc(a1-2)Gal(b1-4)Glc = target: Fuc(a1-2)Gal(b1-4)Glc
Outline: as §1

Fuc(a1-2)Gal(b1-4)Glc6S = target: Fuc(a1-2)Gal(b1-4)Glc6S
Outline: as §1

Fuc(a1-2)Gal(b1-4)GlcNAc = target: Fuc(a1-2)Gal(b1-4)GlcNAc
Outline: as §1

[20] = target: Fuc(a1-2)Gal(b1-4)GlcNAc(b1-2)Man
Outline: as §1

[21] = target: Fuc(a1-2)Gal(b1-4)GlcNAc(b1-2)Man(a1-3)[Fuc(a1-2)Gal(b1-4)GlcNAc(b1-2)Man(a1-6)]Man(b1-4)GlcNAc(b1-4)GlcNAc
Outline: as §1

[22] = target: Fuc(a1-2)Gal(b1-4)GlcNAc(b1-2)Man(a1-3)[Fuc(a1-2)Gal(b1-4)GlcNAc(b1-2)Man(a1-6)]Man(b1-4)GlcNAc(b1-4)[Fuc(a1-6)]GlcNAc
Outline: as §1

[23] = target: Fuc(a1-2)Gal(b1-4)GlcNAc(b1-2)[Fuc(a1-2)Gal(b1-4)GlcNAc(b1-4)]Man(a1-3)[Fuc(a1-2)Gal(b1-4)GlcNAc(b1-2)Man(a1-6)]Man(b1-4)GlcNAc(b1-4)GlcNAc
Outline: as §1

[24] = target: Fuc(a1-2)Gal(b1-4)GlcNAc(b1-3)Gal(b1-4)GlcNAc
Outline: as §1

[25] = target: Fuc(a1-2)Gal(b1-4)GlcNAc(b1-3)Gal(b1-4)GlcNAc(b1-2)Man(a1-3)[Fuc(a1-2)Gal(b1-4)GlcNAc(b1-3)Gal(b1-4)GlcNAc(b1-2)Man(a1-6)]Man(b1-4)GlcNAc(b1-4)GlcNAc
Outline: as §1

[26] = target: Fuc(a1-2)Gal(b1-4)GlcNAc(b1-3)Gal(b1-4)GlcNAc(b1-3)Gal(b1-4)GlcNAc
Outline: as §1

[27] = target: Fuc(a1-2)Gal(b1-4)GlcNAc(b1-3)GalNAc
Outline: as §1

[28] = target: Fuc(a1-2)Gal(b1-4)GlcNAc(b1-3)[Fuc(a1-2)Gal(b1-4)GlcNAc(b1-6)]GalNAc
Outline: as §1

[29] = target: Fuc(a1-2)Gal(b1-4)GlcNAc(b1-3)[Fuc(a1-3)[Gal(b1-4)]GlcNAc(b1-6)]Gal(b1-4)Glc
Outline: as §1

[30] = target: Fuc(a1-2)Gal(b1-4)GlcNAc(b1-6)GalNAc
Outline: as §1

[31] = target: Fuc(a1-2)Gal(b1-4)GlcNAc6S
Outline: as §1

[32] = target: Fuc(a1-2)Gal(b1-4)[Fuc(a1-3)]GlcNAc
Outline: as §1

[33] = target: Fuc(a1-2)Gal(b1-4)[Fuc(a1-3)]GlcNAc(b1-2)Man(a1-3)[Fuc(a1-2)Gal(b1-4)[Fuc(a1-3)]GlcNAc(b1-2)Man(a1-6)]Man(b1-4)GlcNAc(b1-4)[Fuc(a1-6)]GlcNAc
Outline: as §1

[34] = target: Fuc(a1-2)Gal(b1-4)[Fuc(a1-3)]GlcNAc(b1-2)[Fuc(a1-2)Gal(b1-4)[Fuc(a1-3)]GlcNAc(b1-4)]Man(a1-3)[Fuc(a1-2)Gal(b1-4)[Fuc(a1-3)]GlcNAc(b1-2)Man(a1-6)]Man(b1-4)GlcNAc(b1-4)GlcNAc
Outline: as §1

[35] = target: Fuc(a1-2)Gal(b1-4)[Fuc(a1-3)]GlcNAc(b1-3)Gal(b1-4)[Fuc(a1-3)]GlcNAc
Outline: as §1

[36] = target: Fuc(a1-2)Gal(b1-4)[Fuc(a1-3)]GlcNAc(b1-3)Gal(b1-4)[Fuc(a1-3)]GlcNAc(b1-3)Gal(b1-4)[Fuc(a1-3)]GlcNAc
Outline: as §1

[37] = target: Fuc(a1-2)Gal(b1-4)[Fuc(a1-3)]GlcNAc(b1-3)GalNAc
Outline: as §1

[38] = target: Fuc(a1-2)Gal(b1-4)[Fuc(a1-3)]GlcNAc(b1-3)[Neu5Ac(a2-6)Gal(b1-4)GlcNAc(b1-6)]Gal(b1-4)Glc
Outline: as §1

[39] = target: Fuc(a1-2)Gal3S(b1-4)GlcNAc
Outline: as §1

B1: SSR2 (Sclerotium rolfsii) (protein)
chain: MVYKITVRVYQTNPDAFFHPVEKTVWKYANGGTWSITDDQHVLTMGGSGTSGTLRFHADNGESFTATFGVHNYKRWCDIVTNLAADETGMVINQQYYSQKNREEARERQLSNYQVKNAKGRNFQIVYTEAEGNDLHANLIIG
glycan array binding signal (z-score) (Fuc(a1-2)Gal): -0.279 | glycan array binding signal (z-score) (Fuc(a1-2)Gal(b1-3)GalNAc): -0.275 | glycan array binding signal (z-score) [1]: -0.277 | glycan array binding signal (z-score) [2]: 0.154 | glycan array binding signal (z-score) [3]: -0.268 | glycan array binding signal (z-score) [4]: -0.298 | glycan array binding signal (z-score) [5]: -0.282 | glycan array binding signal (z-score) (Fuc(a1-2)Gal(b1-3)GlcNAc): -0.284 | glycan array binding signal (z-score) [6]: -0.289 | glycan array binding signal (z-score) [7]: -0.278 | glycan array binding signal (z-score) [8]: -0.284 | glycan array binding signal (z-score) [9]: -0.294 | glycan array binding signal (z-score) [10]: -0.238 | glycan array binding signal (z-score) [11]: -0.267 | glycan array binding signal (z-score) [12]: -0.287 | glycan array binding signal (z-score) [13]: -0.238 | glycan array binding signal (z-score) [14]: -0.278 | glycan array binding signal (z-score) [15]: -0.272 | glycan array binding signal (z-score) [16]: -0.256 | glycan array binding signal (z-score) [17]: -0.287 | glycan array binding signal (z-score) [18]: -0.29 | glycan array binding signal (z-score) [19]: -0.214 | glycan array binding signal (z-score) (Fuc(a1-2)Gal(b1-4)Glc): -0.321 | glycan array binding signal (z-score) (Fuc(a1-2)Gal(b1-4)Glc6S): -0.292 | glycan array binding signal (z-score) (Fuc(a1-2)Gal(b1-4)GlcNAc): -0.285 | glycan array binding signal (z-score) [20]: -0.282 | glycan array binding signal (z-score) [21]: -0.268 | glycan array binding signal (z-score) [22]: -0.269 | glycan array binding signal (z-score) [23]: -0.278 | glycan array binding signal (z-score) [24]: -0.258 | glycan array binding signal (z-score) [25]: -0.273 | glycan array binding signal (z-score) [26]: -0.277 | glycan array binding signal (z-score) [27]: -0.293 | glycan array binding signal (z-score) [28]: -0.282 | glycan array binding signal (z-score) [29]: -0.286 | glycan array binding signal (z-score) [30]: -0.288 | glycan array binding signal (z-score) [31]: -0.271 | glycan array binding signal (z-score) [32]: -0.282 | glycan array binding signal (z-score) [33]: -0.278 | glycan array binding signal (z-score) [34]: -0.242 | glycan array binding signal (z-score) [35]: -0.288 | glycan array binding signal (z-score) [36]: -0.294 | glycan array binding signal (z-score) [37]: -0.283 | glycan array binding signal (z-score) [38]: -0.282 | glycan array binding signal (z-score) [39]: -0.275
